{
  "source": "PubChem BioAssay (NCATS)",
  "note": "Inconclusive results, whose numbers are uncertain, are shown with a selection of clear calls. Potencies of inconclusive entries are doubtful fits and often do not repeat. Calls of active or inactive are those of the source. The call rests on the fitted dose curve; in most records, active means well fitted cell-killing curve with a large enough effect; inconclusive means small, poorly fitted or top-dose-only effect, or effect the other way; inactive means flat fitted curve, though single readings scatter. Potency means the concentration at half of the fitted maximal effect; tags describe the fitted curve by direction and shape.",
  "data": [
    {"tested_on": "C33A", "assay": "Primary qHTS to identify gynecologic anti-cancer compounds using libraries of approved drugs and bioactive compounds (AID 1345084); further: nearly all actives have a fitted effect of over 55% in size", "conditions": "Gynecologic cancer cell panel viability, ATPlite luminescence, 48 h; series mostly up to 57.5 µM", "method_in_brief": "(§1)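 Cytotoxicity screen measuring ATP content by luciferase luminescence. Each compound is applied at five concentrations for 48 h at 37 C with 5% CO2.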", "values": [
      {"compound": "CN(C)c1ccc(C(=C2C=CC(=[N+](C)C)C=C2)c2ccc(N(C)C)cc2)cc1", "Potency": "active: 10 µM"},
      {"compound": "O=C(Nc1ccc(Cl)cc1)Nc1ccc(Cl)c(Cl)c1", "Potency": "inconclusive: 28.2 µM [cytotoxic, single point]"},
      {"compound": "O[C@@H](c1cc(C(F)(F)F)nc2c(C(F)(F)F)cccc12)[C@H]1CCCCN1", "Potency": "active: 28.2 µM"},
      {"compound": "CCCCCN=C(N)N/N=C/c1c[nH]c2ccc(OC)cc12", "Potency": "inconclusive: 39.8 µM [cytotoxic, partial curve, poor fit]"},
      {"compound": "O=[N+]([O-])c1ccc(O)c2ncccc12", "Potency": "active: 15.8 µM"},
      {"compound": "O=c1c(-c2ccccc2)c1-c1ccccc1", "Potency": "inconclusive: 39.8 µM [cytotoxic, single point]"},
      {"compound": "C#C[C@]1(O)CC[C@H]2[C@@H]3[C@H](C)CC4=C(CCC(=O)C4)[C@H]3CC[C@@]21C", "Potency": "inactive"},
      {"compound": "CC(=O)[C@H]1CC[C@H]2[C@@H]3C[C@H](C)C4=CC(=O)CC[C@]4(C)[C@H]3[C@@H](O)C[C@]12C", "Potency": "inactive"},
      {"compound": "CCOC(=O)C1=C(C)NC2=C(C(=O)CC(C)(C)C2)C1c1ccc(-c2ccccc2)cc1", "note": "(centres undefined)", "Potency": "inconclusive: 35.5 µM [cytotoxic, single point]"}
    ]},
    {"tested_on": "CAOV3", "assay": "Primary qHTS to identify gynecologic anti-cancer compounds using libraries of approved drugs and bioactive compounds (AID 1345084); further: nearly all actives have a fitted effect of over 55% in size", "conditions": "Gynecologic cancer cell panel viability, ATPlite luminescence, 48 h; series mostly up to 57.5 µM", "method_in_brief": "as §1", "values": [
      {"compound": "NC(=O)n1c(O)c(C(=O)c2cccs2)c2cc(Cl)ccc21", "Potency": "inactive"},
      {"compound": "CCN[C@H]1C[C@H](C)S(=O)(=O)c2sc(S(N)(=O)=O)cc21", "Potency": "inconclusive: 1.41 µM [cytotoxic, single point]"},
      {"compound": "COc1cc2c(cc1OC)[C@@H]1CC(=O)[C@@H](CC(C)C)CN1CC2", "Potency": "inactive"},
      {"compound": "CNCCC(Oc1ccccc1OC)c1ccccc1", "note": "(centres undefined)", "Potency": "inconclusive: 28.2 µM [cytotoxic, single point]"},
      {"compound": "CN(C)c1ccc(C(=C2C=CC(=[N+](C)C)C=C2)c2ccc(N(C)C)cc2)cc1", "Potency": "active: 1.41 µM"},
      {"compound": "CCOC(=O)C1=C(C)NC(C)=C(C(=O)OC)C1c1cccc([N+](=O)[O-])c1", "note": "(centres undefined)", "Potency": "inconclusive: 1.58 µM [cytotoxic, single point]"},
      {"compound": "O=C(Nc1ccc(Cl)cc1)Nc1ccc(Cl)c(Cl)c1", "Potency": "inconclusive: 28.2 µM [cytotoxic, single point]"},
      {"compound": "O[C@@H](c1cc(C(F)(F)F)nc2c(C(F)(F)F)cccc12)[C@H]1CCCCN1", "Potency": "active: 20 µM"},
      {"compound": "CCCCCN=C(N)N/N=C/c1c[nH]c2ccc(OC)cc12", "Potency": "inconclusive: 39.8 µM [cytotoxic, single point]"},
      {"compound": "CC(C(O)c1ccc(O)cc1)N1CCC(Cc2ccccc2)CC1", "note": "(centres undefined)", "Potency": "inactive"},
      {"compound": "NS(=O)(=O)c1cc2c(cc1Cl)NC(CSCc1ccccc1)=NS2(=O)=O", "Potency": "inconclusive: 1 µM [rising, partial curve, poor fit]"},
      {"compound": "O=[N+]([O-])c1ccc(O)c2ncccc12", "Potency": "inconclusive: 39.8 µM [cytotoxic, single point]"},
      {"compound": "O=c1c(-c2ccccc2)c1-c1ccccc1", "Potency": "inconclusive: 39.8 µM [cytotoxic, single point]"},
      {"compound": "CC(=O)[C@H]1CC[C@H]2[C@@H]3C[C@H](C)C4=CC(=O)CC[C@]4(C)[C@H]3[C@@H](O)C[C@]12C", "Potency": "inactive"},
      {"compound": "CCOC(=O)C1=C(C)NC2=C(C(=O)CC(C)(C)C2)C1c1ccc(-c2ccccc2)cc1", "note": "(centres undefined)", "Potency": "inconclusive: 7.08 µM [cytotoxic, full curve, poor fit]"}
    ]},
    {"tested_on": "CASKI", "assay": "Primary qHTS to identify gynecologic anti-cancer compounds using libraries of approved drugs and bioactive compounds (AID 1345084); further: nearly all actives have a fitted effect of over 55% in size", "conditions": "Gynecologic cancer cell panel viability, ATPlite luminescence, 48 h; series mostly up to 57.5 µM", "method_in_brief": "as §1", "values": [
      {"compound": "CN(C)c1ccc(C(=C2C=CC(=[N+](C)C)C=C2)c2ccc(N(C)C)cc2)cc1", "Potency": "active: 1.12 µM"},
      {"compound": "O[C@@H](c1cc(C(F)(F)F)nc2c(C(F)(F)F)cccc12)[C@H]1CCCCN1", "Potency": "inconclusive: 39.8 µM [cytotoxic, single point]"},
      {"compound": "CCCCCN=C(N)N/N=C/c1c[nH]c2ccc(OC)cc12", "Potency": "inconclusive: 25.1 µM [cytotoxic, single point]"},
      {"compound": "O=[N+]([O-])c1ccc(O)c2ncccc12", "Potency": "inconclusive: 39.8 µM [cytotoxic, single point]"},
      {"compound": "O=c1c(-c2ccccc2)c1-c1ccccc1", "Potency": "inconclusive: 39.8 µM [cytotoxic, single point]"},
      {"compound": "CC(=O)Oc1ccc(C(c2ccc(OC(C)=O)cc2)c2ccccn2)cc1", "Potency": "inconclusive: 11.2 µM [cytotoxic, partial curve, poor fit]"},
      {"compound": "CCOC(=O)C1=C(C)NC2=C(C(=O)CC(C)(C)C2)C1c1ccc(-c2ccccc2)cc1", "note": "(centres undefined)", "Potency": "inconclusive: 31.6 µM [cytotoxic, single point]"}
    ]},
    {"tested_on": "Es-2", "assay": "Primary qHTS to identify gynecologic anti-cancer compounds using libraries of approved drugs and bioactive compounds (AID 1345084); further: nearly all actives have a fitted effect of over 55% in size", "conditions": "Gynecologic cancer cell panel viability, ATPlite luminescence, 48 h; series mostly up to 57.5 µM", "method_in_brief": "as §1", "values": [
      {"compound": "CC(C)=CCC[C@@](C)(O)[C@H]1CC=C(C)CC1", "Potency": "inactive"},
      {"compound": "CN(C)c1ccc(C(=C2C=CC(=[N+](C)C)C=C2)c2ccc(N(C)C)cc2)cc1", "Potency": "active: 1.78 µM"},
      {"compound": "O=C(Nc1ccc(Cl)cc1)Nc1ccc(Cl)c(Cl)c1", "Potency": "inconclusive: 35.5 µM [cytotoxic, single point]"},
      {"compound": "O[C@@H](c1cc(C(F)(F)F)nc2c(C(F)(F)F)cccc12)[C@H]1CCCCN1", "Potency": "inconclusive: 39.8 µM [cytotoxic, single point]"},
      {"compound": "CCCCCN=C(N)N/N=C/c1c[nH]c2ccc(OC)cc12", "Potency": "inconclusive: 35.5 µM [cytotoxic, single point]"},
      {"compound": "O=[N+]([O-])c1ccc(O)c2ncccc12", "Potency": "inconclusive: 15.8 µM [cytotoxic, partial curve]"},
      {"compound": "O=c1c(-c2ccccc2)c1-c1ccccc1", "Potency": "inconclusive: 39.8 µM [cytotoxic, single point]"},
      {"compound": "CCOC(=O)C1=C(C)NC2=C(C(=O)CC(C)(C)C2)C1c1ccc(-c2ccccc2)cc1", "note": "(centres undefined)", "Potency": "inconclusive: 39.8 µM [cytotoxic, single point]"}
    ]}
  ]
}
